From patent US20170114151A1 (published 2017) come the findings set out here.

This experiment has as its target Human FcRn (human, UniProt P55899 partial chain; P61769 partial chain). The experiment in a line: BIAcore equilibrium binding.
Sequence of UniProt P55899 (P55899 24-297, chain 1 of 2): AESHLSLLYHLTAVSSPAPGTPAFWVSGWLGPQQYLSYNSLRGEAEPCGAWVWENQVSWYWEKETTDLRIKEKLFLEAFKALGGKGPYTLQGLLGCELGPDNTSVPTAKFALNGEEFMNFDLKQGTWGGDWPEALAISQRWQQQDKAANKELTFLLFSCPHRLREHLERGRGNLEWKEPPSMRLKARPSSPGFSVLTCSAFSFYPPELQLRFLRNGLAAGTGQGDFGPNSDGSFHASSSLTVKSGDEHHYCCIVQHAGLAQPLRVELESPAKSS
Sequence of UniProt P55899 (P61769 21-119, chain 2 of 2, further chain): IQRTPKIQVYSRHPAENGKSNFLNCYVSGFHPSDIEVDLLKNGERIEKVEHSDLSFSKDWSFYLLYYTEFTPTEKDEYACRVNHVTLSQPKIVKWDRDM

B1: biMab-EI (PaniX/Dalo) (bispecific antibody)
heavy: QVQLQESGPGLVKPSETLSLTCTVSGGSVSSGDYYWTWIRQSPGKGLEWIGHIYYSGNTNYNPSLKSRLTISIDTSKTQFSLKLSSVTAADTAIYYCVRDRVTGAFDIWGQGTMVTVSSASTKGPSVFPLAPSSKSTSGGTAALGCLVKDYFPEPVTVSWNSGALTSGVHTFPAVLQSSGLYSLSSVVTVPSSSLGTQTYICNVNHKPSNTKVDKRVEPKSCGKTGGGGSGGGGSDIVMTQSPLSLPVTPGEPASISCRSSQSIVHSNGNTYLQWYLQKPGQSPQLLIYKVSNRLYGVPDRFSGSGSGTDFTLKISRVEAEDVGVYYCFQGSHVPWTFGCGTKVEIKGGGGSGGGGSGGGGSGGGGSQVQLQESGPGLVKPSETLSLTCTVSGYSITGGYLWNWIRQPPGKCLEWIGYISYDGTNNYKPSLKDRVTISRDTSKNQFSLKLSSVTAADTAVYYCARYGRVFFDYWGQGTLVTVSSGGGGSGGGGS[left out - human IgG1 Fc]
light: DIQMTQSPSSLSASVGDRVTITCQASQDISNYLNWYQQKPGKAPKLLIYDASNLETGVPSRFSGSGSGTDFTFTISSLQPEDIATYFCQHFDHLPLAFGGGTKVEIKRTVAAPSVFIFPPSDEQLKSGTASVVCLLNNFYPREAKVQWKVDNALQSGNSQESVTEQDSKDSTYSLSSTLTLSKADYEKHKVYACEVTHQGLSSPVTKSFNRGEC
As usually defined, the Kd is a measure of binding affinity in units of concentration. Lower therefore signals higher affinity. Molecule B1 came in with a dissociation constant Kd of 930 nM.
